Measurements taken from PubChem BioAssay AID1671188 (National Center for Advancing Translational Sciences (NCATS), 2021).
The campaign covered roughly 100,000 compounds. About 250 (0.25%) were called active. Inconclusive means that the source gave no clear call. Such entries were picked first, then a sample of the others. The call rests on the fitted dose curve; in most records, active means well fitted inhibition curve with a large enough effect; inconclusive means small, poorly fitted or top-dose-only effect; inactive means flat fitted curve, though single readings scatter. Potencies of inconclusive entries are left out as doubtful fits.
Further: nearly all actives have a fitted effect of over 60% in size.
On the % scale 0 is the no-effect control and ±100 the full control effect; potency means the concentration at half of the fitted maximal effect; tags describe the fitted curve by direction and shape.

The compounds below were run against Alanine aminotransferase 2 (Homo sapiens) (UniProt Q8TD30) (assay: Primary qHTS assay for inhibitors of Glutamate pyruvate transaminase 2 (GPT2)). Settings: Recombinant GPT2, coupled pyruvate oxidase/HRP Amplex Red fluorescence; activity change, negative = inhibition: at 57.7 µM (top of the series) unless noted; series mostly up to 57.7 µM.
Sequence of UniProt Q8TD30 (Q8TD30 whole entry, looked up): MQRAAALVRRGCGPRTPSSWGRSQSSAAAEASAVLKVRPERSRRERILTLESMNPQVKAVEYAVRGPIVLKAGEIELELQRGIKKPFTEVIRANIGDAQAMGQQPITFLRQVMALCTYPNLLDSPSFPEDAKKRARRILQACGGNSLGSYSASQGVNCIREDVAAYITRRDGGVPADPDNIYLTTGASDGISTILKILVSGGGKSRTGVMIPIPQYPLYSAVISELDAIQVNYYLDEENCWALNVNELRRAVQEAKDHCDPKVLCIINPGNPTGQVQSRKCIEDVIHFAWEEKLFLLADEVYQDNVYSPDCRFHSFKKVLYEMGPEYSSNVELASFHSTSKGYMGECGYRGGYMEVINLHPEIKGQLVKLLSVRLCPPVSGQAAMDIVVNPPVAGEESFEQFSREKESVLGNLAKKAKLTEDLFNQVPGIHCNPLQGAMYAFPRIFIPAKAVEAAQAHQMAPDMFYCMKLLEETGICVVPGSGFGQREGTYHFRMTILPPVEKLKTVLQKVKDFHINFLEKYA
Procedure, shortened: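 Recombinant GPT2 (10ng/uL) with 250uM a-KG and 2mM L-alanine, 30 min at room temperature, in HEPES pH 7.5 buffer. Pyruvate detected by pyruvate oxidase/HRP/Amplex Red fluorescence after 30 min in the dark; AOA (50uM) as positive control.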
`OC(Cn1ccnc1-c1cc(F)ccc1-n1cccn1)c1ccccc1` (stereo unspecified) was tested, and the Potency was inconclusive [inhibitor, single point].
For `CCO[C@H]1CN(C(=O)c2ccc(OC)c(N3CCOCC3)c2)C[C@@H]1O`, the Potency was inconclusive [inhibitor, partial curve, poor fit].
For `COc1ccc(Cc2nc3nccc(-c4ccc(OC)cc4)n3n2)cc1`, the Potency was inconclusive [inhibitor, single point].
For `COc1ccc(-c2nnc([C@H]3CCN(Cc4cccc(C#N)c4)C3)o2)cc1`, the Potency was inconclusive [inhibitor, single point].
For `CCCS(=O)(=O)N1CC(c2nc(CCOc3cccc(C)c3)no2)C1`, the Potency was inconclusive [inhibitor, single point].
`CCCn1c(=O)c2[nH]c(-c3cnn(Cc4cccc(C(F)(F)F)c4)c3)nc2n(CC)c1=O` was tested, and the Potency was inconclusive [inhibitor, partial curve, poor fit].
For `CCn1cc(C(=O)N2C[C@@H](COC)[C@H](c3nc(C4CC4)no3)C2)cn1`, the “activity change, negative = inhibition” value was inactive: 1.23%.
With `CCCNC(=O)Cn1cccc1-c1nc(-c2ccc(OC)c(F)c2)no1` the “outcome” value was “inactive”.
In the case of `Cn1ccc2c(C(=O)NCc3cccnc3)nc(-c3cccc4cc[nH]c34)cc21`, the Potency is reported as inconclusive [inhibitor, single point].
`CCc1nc2c(=O)n(CC(=O)NCc3ccccc3OC)nc(C)c2s1` was tested, and the Potency was inconclusive [inhibitor, full curve, poor fit].
`COc1ccc(-c2cc(-c3c(C)noc3C)c3cncn3c2)cc1OC` was tested, and the Potency was inconclusive [inhibitor, single point].
`Cn1c(Cn2cccn2)nnc1C1CCCN(Cc2nc(C(N)=O)no2)C1` (stereo unspecified) was tested, and the Potency was inconclusive [inhibitor, full curve, poor fit].
With `Cc1ncsc1CCC(=O)N1CCC2(CCNCC2)CC1` the Potency was inconclusive [inhibitor, partial curve, poor fit].
In the case of `COc1ccccc1-c1cnc2n[nH]c(-c3ccc4c(c3)OCO4)c2n1`, the Potency is reported as inconclusive [inhibitor, full curve].
In the case of `O=C1NC2(CCCN(Cc3cncs3)C2)COc2ccccc21` (stereo unspecified), the “activity change, negative = inhibition” value is reported as inactive: -8.03%.
In the case of `CCN(C(=O)Cn1ccn2nc(-c3ccc(F)cc3)c(CO)c2c1=O)c1ccccc1`, the Potency is reported as inconclusive [inhibitor, full curve].
With `O=C(Nc1ccc(Cl)cc1Cl)c1cn2c(n1)CN([S+](=O)([O-])c1cccc(C(F)(F)F)c1)CC2` the Potency was inconclusive [inhibitor, single point].
For `CC(=O)Oc1c(-c2ccc(NC(=O)C3CC3)cc2)c(-c2ccc3c(c2)OCO3)nn1-c1cccc(C)c1`, the Potency was active: 14.1 µM.
For `O=C(NCc1cccnc1)c1cn2cc(-c3ccc(F)cc3)sc2n1`, the Potency was inconclusive [inhibitor, single point].
`O=C1NCc2ccccc2CC12CCN(Cc1c(F)cccc1F)CC2` was tested, and the Potency was inconclusive [inhibitor, single point].
With `Cc1ccccc1-c1cn[nH]c1C1CCN(C(=O)CN2CCNC(=O)C2)CC1` the Potency was inconclusive [inhibitor, single point].
With `COc1ccc(-c2cc(N3CCC(NC(=O)c4cccc(C)c4)C3)n[nH]2)cc1` (stereo unspecified) the Potency was inconclusive [inhibitor, single point].
`Cc1ccc(C(=O)NC2CCCN(c3cc(-c4ccc(F)cc4)[nH]n3)C2)cn1` (stereo unspecified) was tested, and the Potency was inconclusive [inhibitor, partial curve, poor fit].
`C[S+](=O)([O-])N1CCC(c2nnc3n2C(C(=O)NCCCc2ccccc2)CC3)CC1` (stereo unspecified) was tested, and the “activity change, negative = inhibition” value was inactive: 1.15%.
In the case of `O=C(NCC(F)(F)F)C1CCCN(c2nc3ncccc3o2)C1` (stereo unspecified), the Potency is reported as inconclusive [inhibitor, full curve, poor fit].
`O=C(Nc1ccccc1)O[C@H]1COCCN(c2nc3ccccc3o2)C1` was tested, and the Potency was inconclusive [inhibitor, full curve, poor fit].
For `CN(C)c1ccc(C(=O)N2CCN3C(=O)N(Cc4ccccc4)C(=O)[C@H]3C2)cc1`, the Potency was inconclusive [inhibitor, single point].
For `CC(C)COCC(CN(Cc1ccccc1)c1ccccc1)N1CCCC1` (stereo unspecified), the Potency was inconclusive [inhibitor, single point].
In the case of `CC(O)CNc1ccc(-c2nc(CCCc3ccccc3)no2)cn1` (stereo unspecified), the Potency is reported as inconclusive [inhibitor, single point].
For `CCN(Cc1ccccc1)C(=O)Cn1c(=O)n(C)c2cnc(-c3ccccc3)nc21`, the Potency was inconclusive [inhibitor, single point].
In the case of `COc1ccc(-c2nc3c(c(=O)[nH]2)CCN(C(=O)c2nccc4ccccc24)C3)cc1`, the Potency is reported as inconclusive [inhibitor, single point].
`CC1(COCC2CC2)COc2ccc(C(=O)NCc3cccnc3)cc2N1` (stereo unspecified) was tested, and the Potency was inconclusive [inhibitor, single point].
For `Cc1cccc(-c2nc3ccc(C(=O)N4CCCCC4)cc3o2)n1`, the Potency was inconclusive [inhibitor, single point].
For `CCc1nccn1CC(=O)Nc1nn(C)c2cccc(Oc3cccnc3)c12`, the Potency was inconclusive [inhibitor, single point].
`CN(Cc1ccc(-c2ccccc2)cc1)Cc1cccn1C` was tested, and the Potency was inconclusive [inhibitor, single point].
For `CCOc1c(CN(C)C(=O)C(c2ccc(F)cc2)N(C)C)cccc1OC` (stereo unspecified), the Potency was inconclusive [inhibitor, single point].
For `NCC1CCCN(Cc2cccc(-c3nc(-c4cccnc4)cc(=O)[nH]3)c2)C1` (stereo unspecified), the “activity change, negative = inhibition” value was inactive: -8.31%.
`COc1cccc(S(=O)(=O)N2CCc3nnc(C4CC4)n3CC2)c1` was tested, and the “outcome” value was “inactive”.
`C=CCOc1cccc(-c2nc(C(=O)N(C)CC)cs2)c1` was tested, and the Potency was inconclusive [inhibitor, single point].
`CC(=O)N(C)C1CCCc2ccccc21` (stereo unspecified) was tested, and the “activity change, negative = inhibition” value was inactive: -13% [at 88.5 µM].
For `O=c1c(O)c(-c2ccc(O)c(O)c2)oc2cc(O)ccc12`, the Potency was inconclusive [inhibitor, full curve, poor fit].
